Data: PubChem BioAssay AID504937 (National Center for Advancing Translational Sciences (NCATS), 2011)
Screen size: about 340,000 compounds; about 20 (0.006%) were called active. This list was built around the results that the source calls inconclusive (neither active nor inactive); the mix of calls is not that of the screen. Calls follow the shape of the dose curve; as a rule, active = well fitted inhibition curve with a large enough effect; inconclusive = small, poorly fitted or top-dose-only effect; inactive = no such curve, though single readings can be large or run the other way. Potencies beside an inconclusive call are fits to weak or partial responses and may not hold up.

target: Sphingomyelin phosphodiesterase (Homo sapiens) (UniProt P17405); assay: Inhibitors of Secretory Acid Sphingomyelinase (S-ASM): qHTS; conditions: placental ASM, HMU-PC fluorogenic substrate (series up to 57.5 µM), 60 min
Outline: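 HMU-PC0 cleavage (9 uM final) by human placental ASM, 60 min at 37 °C following 10 min compound exposure at RT; stopped at pH 10, fluorescence Ex 386/Em 447 nm.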
Potency is read from the fitted curve at half-maximal effect; tags tell the direction and shape of the fitted curve.

UniProt P17405, sequence (P17405 whole entry, looked up): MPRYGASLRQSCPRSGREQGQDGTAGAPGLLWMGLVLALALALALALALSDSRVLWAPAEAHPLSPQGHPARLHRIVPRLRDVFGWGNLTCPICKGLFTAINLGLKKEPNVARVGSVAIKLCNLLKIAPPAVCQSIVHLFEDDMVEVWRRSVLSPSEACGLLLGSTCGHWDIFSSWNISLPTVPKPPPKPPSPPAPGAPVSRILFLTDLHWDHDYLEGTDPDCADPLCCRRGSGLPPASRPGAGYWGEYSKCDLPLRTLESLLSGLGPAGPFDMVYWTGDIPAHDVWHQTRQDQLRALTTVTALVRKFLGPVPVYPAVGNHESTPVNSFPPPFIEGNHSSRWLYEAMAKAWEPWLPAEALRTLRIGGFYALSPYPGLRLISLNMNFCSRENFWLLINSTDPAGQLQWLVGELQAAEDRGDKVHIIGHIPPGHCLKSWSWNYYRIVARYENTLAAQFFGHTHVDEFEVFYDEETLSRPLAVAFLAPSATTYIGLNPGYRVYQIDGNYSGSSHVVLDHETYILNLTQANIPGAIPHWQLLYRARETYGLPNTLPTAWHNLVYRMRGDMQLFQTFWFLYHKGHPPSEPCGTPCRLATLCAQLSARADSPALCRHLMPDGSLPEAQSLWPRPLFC

Compound | Potency
COCCOc1ccc(C(F)(F)F)cc1NC(=O)c1ccc(C(F)(F)F)cc1 | inactive
COc1ccc(C(=O)NCc2nnc(SCC(=O)NO)n2Cc2ccccc2)cc1 | inconclusive: 79.4 µM [inhibitor, partial curve, poor fit]
COc1ccc(Cc2nnc(N=Nc3c(O)[nH]c4ccc(Br)cc34)[nH]c2=O)cc1 | inconclusive: 100 µM [inhibitor, single point]
COc1ccc2oc(C(=O)OCC(=O)NC(=O)NC(C)C)c(C)c2c1 | inconclusive: 2000 µM [inhibitor, partial curve, poor fit]
CCc1cccc2c(C(=O)CN3C(=O)NC(C)(c4cccc5ccccc45)C3=O)c[nH]c12 (stereo unspecified) | inconclusive: 200 µM [inhibitor, partial curve, poor fit]
COc1ccc(C2=NN(C(=O)COC(=O)c3ccc(S(C)(=O)=O)c([N+](=O)[O-])c3)C(c3ccco3)C2)cc1 (stereo unspecified) | inconclusive: 7.08 µM [inhibitor, partial curve, poor fit]
CC[n+]1c(C=C2C=C(C)OC(C)=C2)sc2ccccc21 | inconclusive: 79.4 µM [inhibitor, partial curve, poor fit]
CC(C)(C)c1ccc(Cn2cnc(-c3ccc([N+](=O)[O-])cc3)c2)cc1 | inconclusive: 89.1 µM [inhibitor, single point]
CC(C)c1nc(SCC(=O)N2CCCc3ccccc32)c2c(=O)n(C)c(=O)n(C)c2n1 | inconclusive: 112 µM [inhibitor, partial curve, poor fit]
N#C/C(=C\C1=C(N2CCOCC2)C(=C/c2cccc([N+](=O)[O-])c2)/CC1)C(=O)Nc1ccccc1F | inconclusive: 2000 µM [inhibitor, partial curve, poor fit]
O=C1/C(=C\c2cccs2)N=C(c2cccs2)N1Nc1ccccc1 | inconclusive: 79.4 µM [inhibitor, single point]
O=C(N/N=C/c1ccc(OC(=O)c2ccccc2Cl)cc1)c1cc(O)cc(O)c1 | inconclusive: 56.2 µM [inhibitor, single point]
O=C(NC(=S)Nc1ccc([N+](=O)[O-])cc1O)C1CCCCC1 | inactive
COc1cc2c(cc1NC(=O)CSc1cccc[n+]1[O-])oc1ccccc12 | inactive
O=C(O)[C@H](Cc1ccccc1)NC(=O)C(c1ccccc1)(c1ccccc1)c1ccccc1 | inactive
Cc1ccc(OCC(=O)N/N=C\c2c(C)n(C)c3ccccc23)c([N+](=O)[O-])c1 | inconclusive: 126 µM [inhibitor, partial curve, poor fit]
O=C1S/C(=C/c2ccc(N3CCOCC3)o2)C(=O)N1Cc1c(F)cccc1Cl | inconclusive: 112 µM [inhibitor, partial curve, poor fit]
Oc1ccc(Cl)cc1Nc1nc(NCC2CCCO2)c2ccccc2n1 (stereo unspecified) | inconclusive: 708 µM [inhibitor, partial curve, poor fit]
CCOc1ccc(NC(=O)COC(=O)Cn2cnc3ccccc32)cc1 | inconclusive: 79.4 µM [inhibitor, partial curve, poor fit]
CN(C)c1ccc(C=c2c3ccccc3n3c2cc(-c2ccccc2)[n+]3C)cc1 | inconclusive: 100 µM [inhibitor, partial curve, poor fit]
Cc1ccccc1OCC(=O)Nc1cccc(S(=O)(=O)NC2=NCCCCC2)c1 | inactive

Compound | Potency
O=C(CSc1ccc2c(c1)OCCO2)NCCc1ccc(Cl)cc1Cl | inactive
Cc1cc(N2CCCC2=O)ccc1S(=O)(=O)NCCOc1ccccc1 | inactive
NC(=O)c1ccc(NC(=O)COc2coc(CN3CCc4ccccc4C3)cc2=O)cc1 | inactive
Cc1[nH]c2ccc(C(=O)NC3CCC(C)CC3)cc2c1C (stereo unspecified) | inactive
CC(=O)NS(=O)(=O)c1ccc(NC(=O)c2ccc3c(c2)C(=O)N(CCC(C)C)C3=O)cc1 | inconclusive: 224 µM [inhibitor, partial curve, poor fit]
CC(C)(C)c1ccc(-c2csc(NNC3=NCCCCC3)n2)cc1 | inconclusive: 251 µM [inhibitor, partial curve, poor fit]
COc1ccc(C(=O)Oc2cc(/C=N/NS(=O)(=O)c3ccccc3)ccc2OC)cc1 | inconclusive: 282 µM [inhibitor, partial curve, poor fit]
COc1ccc2sc(N(CCCN(C)C)C(=O)c3ccc(C(=O)c4ccccc4)cc3)nc2c1 | inconclusive: 3980 µM [inhibitor, partial curve, poor fit]
CCc1ccc(NC(=O)C(C)OC(=O)c2cc(=O)[nH]c3ccc(S(=O)(=O)Nc4ccc(F)cc4)cc23)cc1 (stereo unspecified) | inactive
CC(=O)Nc1ccc(S(=O)(=O)NNc2ccc([N+](=O)[O-])cc2)cc1 | inconclusive: 79.4 µM [inhibitor, partial curve]
O=S(=O)(c1cccc(-c2nnco2)c1)N1CCCC1 | inactive
CC(=O)Nc1cccc(Oc2ncnc3scc(-c4ccc(C(C)C)cc4)c23)c1 | inconclusive: 89.1 µM [inhibitor, single point]
O=C(CN1CCCCC1)Nc1nc(-c2ccc(F)c(F)c2)cs1 | inactive
CCn1cc(C(=O)NCCc2ccccc2)c(=O)c2cc(F)c(N3CCN(C)CC3)cc21 | inactive
Cc1nn(-c2cc(N3CCNCC3)ccc2[N+](=O)[O-])c(=O)c2ccccc12 | inconclusive: 355 µM [inhibitor, partial curve, poor fit]
CCOc1ccc(NC(=O)C2CC(=O)N(C)C(=Nc3ccc4c(c3)OCO4)S2)cc1 (stereo unspecified) | inconclusive: 112 µM [inhibitor, partial curve, poor fit]
N#C/C(=C/c1cn(-c2ccccc2)nc1-c1cccc(OCc2ccccc2)c1)C(=O)NCCCn1ccnc1 | inconclusive: 100 µM [inhibitor, single point]
O=P(O)(O)C(O)C(F)(F)C(F)(F)C(F)(F)C(F)F (stereo unspecified) | inconclusive: 6.31 µM [inhibitor, partial curve, poor fit]
COc1cc(C(=O)Nc2nc(-c3ccc(F)cc3)cs2)ccc1OCC(=O)N1CCOCC1 | inconclusive: 89.1 µM [inhibitor, partial curve, poor fit]
CCC(=O)c1ccc(N2CCN(C(=O)COc3ccccc3F)CC2)c(F)c1 | inactive
O=C(Oc1cccc(Nc2ncnc3ccccc23)c1)c1ccccc1Cl | inconclusive: 100 µM [inhibitor, single point]

Compound | Potency
Cc1cc(/C=N\NC(=O)COc2cccc3cccnc23)c(C)n1-c1ccc(Br)cc1 | inconclusive: 112 µM [inhibitor, partial curve, poor fit]
CCOc1ccc(OCCCC(=O)Nc2cc(S(=O)(=O)N3CCOCC3)ccc2N2CCOCC2)cc1 | inconclusive: 316 µM [inhibitor, partial curve, poor fit]
CCCCN(CCCNC(=O)Cn1nc(CC)n2c(cc3sc(C)cc32)c1=O)Cc1ccccc1 | inconclusive: 89.1 µM [inhibitor, partial curve, poor fit]
Cc1ccc(C(=O)N/C(=C\c2ccc(Br)cc2)c2nc(=S)[nH][nH]2)cc1 | inconclusive: 112 µM [inhibitor, partial curve, poor fit]
COc1ccc(C(=O)NCC(=O)OCC(=O)N2N=C(c3ccc(Cl)cc3)CC2c2ccco2)cc1OC (stereo unspecified) | inconclusive: 251 µM [inhibitor, partial curve, poor fit]
Cc1cc(=O)n2[nH]c(C)c(-c3ccc(Cl)cc3)c2n1 | inactive
Cn1c(SCC(=O)Nc2sc3c(c2C#N)CCC3)nnc1C1COc2ccccc2O1 (stereo unspecified) | inconclusive: 126 µM [inhibitor, partial curve]
N#C/C(=C\c1cc2c(cc1Br)OCO2)C(=O)NCC1CCCO1 (stereo unspecified) | inactive
Cc1cc(C)cc(NC(=O)c2ccc(N3C(=O)C4CCCCC4C3=O)cc2)c1 (stereo unspecified) | inactive
COc1ccc(-c2noc(N3CCCC(C(=O)Nc4ccc(C(C)=O)cc4)C3)n2)cc1 (stereo unspecified) | inconclusive: 35.5 µM [inhibitor, partial curve]
COc1ccc(NC(=S)NNc2ccc([N+](=O)[O-])cc2S(=O)(=O)Nc2ccc(C)cc2C)cc1 | inconclusive: 178 µM [inhibitor, partial curve, poor fit]
O=C1C(=C(c2ccccc2)c2ccccc2)Nc2ccccc21 | inconclusive: 112 µM [inhibitor, partial curve, poor fit]
O=c1[nH][nH]c(=O)c2c(NS(=O)(=O)c3ccccc3)cccc12 | inactive
CCOC(=O)c1cc(-c2ccc(N3CCOCC3)cc2)nn1-c1ccc(F)cc1F | active: 28.2 µM
C#CCOCCOCCOCCNc1nc(N2CCN(C(=O)CCCCCCCCCCNC(=O)Cn3cc(CCCCCN)nn3)CC2)nc(N2CCN(C(=O)CCCCCCCCCCNC(=O)[C@H](CO)n3cc(CCCSC)nn3)CC2)n1 | inconclusive: 251 µM [inhibitor, partial curve, poor fit]
Cn1c(CSc2ccccc2)c(C#N)c2ccccc21 | inconclusive: 200 µM [inhibitor, partial curve, poor fit]
CCN(Cc1ccccc1)C(=O)COC(=O)c1c(C)nsc1NC | inactive
Cc1cc(C)c(S(=O)(=O)NCCn2c(C)cc3ccccc32)c(C)c1 | inconclusive: 355 µM [inhibitor, partial curve, poor fit]
O=[N+]([O-])c1ccc(C=NNc2ccccc2)cc1 | inconclusive: 89.1 µM [inhibitor, partial curve, poor fit]
